Laboratory results taken from the RNAGym collection of RNA variant scans (doi:10.1073/pnas.2313332121).
Variants at the floor of the assay are shown more often than the library holds them.

B1: TPR 5TU (parent)
chain: GGAUCUUCUCGAUCUAACAAAAAAGACAAAUCUGCCACAAAGCUUGAGAGCAUCUUCGGAUGCAGAGGCGGCAGCCUUCGGUGGCGCGAUAGCGCCAACGUUCUCAACUAUGACACGCAAAACGCGUGCUCCGUUGAAUGGAGUUUAUCAUG

Variants of: B1
Test: polymerase ribozyme fitness, log enrichment relative to wild type (log ratio); higher = more active; in vitro selection for triplet polymerase activity
Method in brief: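 A heterodimeric triplet polymerase ribozyme had each of its subunits mutagenized by PCR into a library, which was transcribed. One round of in vitro selection, done in triplicate, annealed each library with a biotinylated primer, its partner subunit and triplets, then incubated it frozen at −7 °C before gel excision of extended constructs, streptavidin-bead capture and RT-PCR. Fitness is the logarithm of genotype enrichment relative to wild-type enrichment, based on Illumina sequencing of inputs and outputs and inverse-variance-weighted replicate averages. A base-2 logarithm is used, and genotypes were kept only with ≥10 input reads and ≥1 read per output.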

Polymerase ribozyme fitness (log ratio), ≤ -4.2:
GGAUCUUCUCGAUCUAACAAAAAAGACAAGUCUGCCACAAAGCUUGAAAGCAUUUUCGGAUGCAGAGGCGGCAGCCUUCGGUGGUGCGAUAGCGCCAACGUUCUCAACUAUGACACGCAAAACGCGUGCUCCGUUGAAUGGAGUUUAUCAUG [A30G G48A C54U C85U]
GGAUCUUCUCGAUCUAACAAAAAAGACAAGUCUGCCACAAAGCUUGAGAGCAUCUUCGGAUGCAGAGGCAGCAGCCUUCGGUGGCGCGAUAGCGCCAACGUUCUUAACUAUGACCCGCAAAACGCGUGCUCCGUUGAAUGGAGUUUAACAUG [A30G G70A C105U A115C U148A]
GGAUCUUCUCGAUCUAACAAAAAAGACAAGUCUGCCACAAAGCUUGAGAGCAUCUUCGGAUGCAGAGGCGGCAGCCUUCGGUGGCGCGAUAGCGCCAACGUUCUCAACUAUGACAUGCAAAACGCGUGCUCCGUUGAAUGGAGUUUACCAUG [A30G C116U U148C]
GGAUCUUCUCGAUCUAACAAAAAAGACAAGUCUGCCACAAAGCUUGAGAGGAUCUUCGGAUGCAGAGGCGGCAGCCUUCGGUGGCGCGAUAGCGGCUACGUUCUCAACUAUGACACGCAAAACGCGUACUCCGUUGAAUGGAGUUUAUCAUG [A30G C51G C95G A97U G128A]
GGAUCUUCUCGAUCUAACAAAAAAGACAAGUCUGCUACAAAGCUUGAGAGCAUCUUCGGAUGCAGAGGCGGCAGCCUUCUGUGGCGCGGUAGCGCCAACGUUCUCAACUAUGACACGCAAAACUCGUGCUCCGUUGAAUGGAGUUUAUCAUG [A30G C36U G80U A89G G124U]
GGAUCUUCUCGAUCUAACAAAAAAGACAAGUCUGCCACAAAGCUUGAGACCAUCUUCGGAUGCAGAGGCGUCAGCCUUCGGAGUCGCGAUAGCGCCAACGUUCUCAACUAUAACACGCAAAAGGCGUGCUCCGUUGAAUGGAGUUUAUCAUG [A30G G50C G71U U82A G84U G112A C123G]
GGAUCUUCUCGAUCUAACAAAAAAGACAAGUCUGUCACAAAGCUUGAGAGCAUCUUCGGAUGCAUAGGCGGCAGCCUUCGGUGGCGCGAUAGCUCCAACGUUCUCAACUAUGACACGCAAAACGCGUGCUCCGUCGAAUGGAGGUUAUCAUG [A30G C35U G65U G94U U135C U144G]
GGAUCUUCUCGAUCUAACAAAAAAGACAAGUCUGCCACAAAGCUUGAGAGCAUCUUCGGAUGCAGAGGCGGCAGCCUUCGGUGGCGCGAUAGCGCCAACGUUCUCAAUAAUGACACGCAAAACGCGUGCUCCGUUGAAUGGAGUUUAUCAUG [A30G C108U U109A]
GGAUCUUCUCGAUCUAACAAAAAAGACAAGUCUGCCACAAAGCUUGAGAGCAUCUUCGGAUGCAGAGGCGGCAGCCUUCGGUGGCGGGAUAGCGCCAACGCUCUCAACUAUGACACGCAAAGCGCGUGCUCCGUUGAAUGGAGUUUAUCAUG [A30G C87G U101C A122G]
GGAUCUUCUCGAUCUAACAAAAAAGACAAGUCUGCCACAAAGCUUGAGAGCCUCUUCGGAUGCAGAGGCGGCAGCCUUCGGUGUCGCGAUAGCGCCAACGUUCUCUACUAUGACACGCAAAACGCGUGCUCCGUUGAAUGGAGUUUAUCAUG [A30G A52C G84U A106U]
GGAUCUUCUCGAUCUAACAAAAAAGACAAGUCUGCCACAAAUCUUGAGAGCAUCUUCGGAUGCAGAGGCGGCAGCCUUCGGUGGCGCGAUAGCGCUAACGUUCUCAACUAUGACACGGAAAACGCGUGCGCCGUUGAAUGGAGUUUAUCAUG [A30G G42U C96U C118G U130G]
GGAUCUUCUCGAUCUAACAAAAAAGACAAGUCUGCCACAAAGCUUGAGAGCAUCUUCAGAUGCAGAGGCGGCAGCCUUCGGUGGCGCGAUAGCGCCAUCGUUCUCAACUAUGACACGCAAAACGCGUGCUCCGUCGAAUGGAGUUUAUCAUG [A30G G58A A98U U135C]
GGAUCUUCUCGAUCUAACAAAAAAGACAAGUCUGCCACAAAGCUUGAGAGUAUCUUCAGAUGCAGAGGCGGCAGCCUUCGGUGGCUCGAUAGCGCCAACGUUCUCAACUAUGACACGCAAAACGCGUGCUCCGUUGAAUGGAGUUUAUCAUG [A30G C51U G58A G86U]
GGAUCUUCUCGAUCUAACAAAAAAGACAAGUCUGCCACAAAGCUUGAGAGCAUCUUCGGCUGCAGAGGCGGCAGCCUUCGGUGGCGCGAUAGUGCCAACGUGCUCAACUAUGACACGCAAAACGCGUUCUCCGUUGAAUGGAGUUUAUCAUG [A30G A60C C93U U102G G128U]
GGAUCUUCUCGAUCUAACAAAAAAGACAAGUCUGCCACAAAGCUUGAGAGCAUCUUCGGAUGCAGAGGCAGCAGCCUUCGGUGGCGCGAUUGCGCCAACGUUCUCAACUAUGACACGCAAAGCGCGUGCUCCGUUGAAUGGAGUGUAUCAUG [A30G G70A A91U A122G U145G]
GGAUCUUCUCGAUCUAACAAAAAAGACAAGUCUGCCACAAAGCUUGAGAGCAUCUUCGGAUGCAGAGGCGGCAGCUUUCGGUGGCGCGAUAGCGCUAACGUUCUCAACUAUGACACGCAAAACGCGUGCUCCGUUGAAUGGAGUUUAUCAUG [A30G C76U C96U]
GGAUCUUCUCGAUCUAACAAAAAAGACAAGUCUGCCACAAAGCUUGAGCGCAUCAUCGGAUGCAGAGGCGGCAGCCUUCGGUGGCGCGAUAGCGCCAACGUUUUCAACUAUGACACGCAAAACGCGUGCUCCGUUGACUGGAGAUUAUCAUG [A30G A49C U55A C103U A138C U144A]
GGAUCUUCUCGAUCUAACAAAAAAGACAAGUCUGCCAAAAAGCUUGAGAGCAUCUUCGGAUGCAGAGGCGGCAGCCAUCGGUGACACGAUAGCGCCAACGUUCUCAAAUAUGACACGCAAAACGCGUGCUCCGUUGAAUGGAAUUUAUCAUG [A30G C38A U77A G84A G86A C108A G143A]
GGAUCUUCUCGAUCUAACAAAAAAGACAAGUCUGCCACAAAGAUUGAGAGCAUCUUCGGAUGCAGAGGCGGCAGCCUUCGGUAGCGCGAUAGCGCGAACGUUCUCAACUAUGACACGCAAAACGCGUGCUCCGUUGAAUGGAGUUUAUCAUG [A30G C43A G83A C96G]
